This note sets out measurements from paper PMC12184805 (Journal of medicinal chemistry, 2025).

Series [1] deals with T1, recombinant human heparanase (HPSE) (Homo sapiens, UniProt Q9Y251).
T1 sequence (Q9Y251 158-543 limits assumed): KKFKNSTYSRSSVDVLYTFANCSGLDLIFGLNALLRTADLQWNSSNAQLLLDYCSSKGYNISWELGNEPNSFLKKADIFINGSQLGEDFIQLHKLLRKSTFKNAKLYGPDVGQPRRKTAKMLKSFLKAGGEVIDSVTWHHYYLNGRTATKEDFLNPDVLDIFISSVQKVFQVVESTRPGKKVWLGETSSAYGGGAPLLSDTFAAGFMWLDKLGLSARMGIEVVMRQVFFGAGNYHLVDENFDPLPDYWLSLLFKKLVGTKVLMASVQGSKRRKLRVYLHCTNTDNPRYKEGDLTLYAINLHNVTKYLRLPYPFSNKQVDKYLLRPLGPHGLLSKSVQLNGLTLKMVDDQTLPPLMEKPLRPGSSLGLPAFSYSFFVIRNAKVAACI
T1 sequence (Q9Y251 36-109 limits assumed): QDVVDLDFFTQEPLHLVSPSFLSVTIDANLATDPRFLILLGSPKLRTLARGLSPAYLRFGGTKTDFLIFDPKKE
As to the kind of experiment: Heparanase inhibition TR-FRET assay. In kind it is biochemical. Conditions: fluorescent HS substrate, mean ± SD (n = 3). Background: Time-resolved FRET reads energy transfer from a long-lived donor to a nearby acceptor.

Series [2] addresses FXa (Bos taurus, UniProt P00743). As to the kind of experiment: Factor Xa chromogenic substrate assay. Conditions: anticoagulant activity against FXa. In kind it is biochemical.
The test system of series [3] is U-87 glioblastoma cells. As to the kind of experiment: WST-1 cell viability assay. Conditions: 120 μM, U-87 cells.
Series [4] relates to MPC-11 myeloma cells. Kind of series: MPC-11 mouse myeloma tumor growth. In kind it is in vivo, BALB/c mice. Conditions: for tumor growth inhibitor index (TGI): MPC-11 s.c. in BALB/c mice, i.p. treatment, termination day 17.
The target of series [5] is T2, recombinant human heparanase (Homo sapiens, UniProt Q9Y251).
T2 sequence (Q9Y251 36-543): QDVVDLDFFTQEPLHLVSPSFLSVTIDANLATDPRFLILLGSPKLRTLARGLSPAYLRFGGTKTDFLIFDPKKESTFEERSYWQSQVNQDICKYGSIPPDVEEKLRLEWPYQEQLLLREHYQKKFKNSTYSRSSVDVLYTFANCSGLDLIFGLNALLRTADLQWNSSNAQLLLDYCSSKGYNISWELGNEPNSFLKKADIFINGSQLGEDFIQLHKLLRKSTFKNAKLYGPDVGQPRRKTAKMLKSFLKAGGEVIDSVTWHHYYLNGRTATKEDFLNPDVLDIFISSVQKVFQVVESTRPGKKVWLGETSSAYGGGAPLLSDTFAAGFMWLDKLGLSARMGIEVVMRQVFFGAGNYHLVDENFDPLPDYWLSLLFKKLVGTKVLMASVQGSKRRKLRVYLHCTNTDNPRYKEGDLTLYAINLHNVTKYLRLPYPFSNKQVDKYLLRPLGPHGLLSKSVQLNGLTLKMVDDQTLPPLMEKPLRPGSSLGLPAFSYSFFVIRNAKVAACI
Kind of series: Extracellular matrix degradation assay. Conditions: 5 μg/mL ligand; HS degradation fragments, peak II.

Series [6] has as its system U-87 MG cells. As to the kind of experiment: Matrigel invasion assay. In kind it is cell-based, human. Conditions: nontoxic ligand concentrations 15–50 μM; 24 h.
The test system of series [7] is B16 melanoma cells. Kind of series: B16 melanoma experimental metastasis. In kind it is in vivo, C57BL/6J mice. Conditions: 200 μg per mouse i.p.; day 17; vs PBS control.
The test system of series [8] is Human recombinant CXCL4/platelet factor 4 (PF4). As to the kind of experiment: Platelet factor 4 binding assay. Conditions: HPSE vs PF4 (BLI).

Usually IC50 stands for the concentration that inhibits the measured activity by half. For orientation: cell viability means a per cent measure of how many cells are alive, often set against a control. A higher cell viability goes with less harm to the cells.

Turning to “1,2′,2‴,3,6‴-Penta-N-sulfo-2″,3′,3‴,4,4′,4‴,5″,6′-octa-O-(2-naphthylmethyl)-paromomycin [Ligand L10]”, the IC50 in series [1] stood at 0.0234 ± 0.00391 µM.

For the compound “1,2′,2‴,3,6‴-Penta-N-sulfo-5″,6′-di-O-sulfo-paramomycin [Ligand L2]”, the IC50 in series [1] was determined as 14.9 ± 1.79 µM.

Turning to `CC(C)CCC[C@@H](C)[C@H]1CC[C@H]2[C@@H]3CC[C@H]4C[C@@H](O[C@@H]5O[C@H](COS(=O)(=O)O)[C@@H](O[C@H]6O[C@H](COS(=O)(=O)O)[C@@H](O[C@H]7O[C@H](COS(=O)(=O)O)[C@@H](O[C@H]8O[C@H](COS(=O)(=O)O)[C@@H](OS(=O)(=O)O)[C@H](OS(=O)(=O)O)[C@H]8OS(=O)(=O)O)[C@H](OS(=O)(=O)O)[C@H]7OS(=O)(=O)O)[C@H](OS(=O)(=O)O)[C@H]6OS(=O)(=O)O)[C@H](OS(=O)(=O)O)[C@H]5OS(=O)(=O)O)CC[C@]4(C)[C@H]3CC[C@]12C` [PG545, reference compound], in series [2], half-maximal inhibition (IC50) was put at 15.6 µM. Also, the cell viability in series [3] came to 45%.

As for `CC(C)C[C@H](NC(=O)[C@H](Cc1ccccc1)NC(=O)c1cnccn1)B(O)O` [bortezomib, reference compound], the “tumor growth inhibitor index (TGI)” value in series [4] came out at 81.7%.

For “1,2′,2‴,3,6‴-Penta-N-sulfo-2″,3′,3‴,4,4′,4‴-hexa-O-(2-naphthylmethyl)-5″,6′-(N-1-naphthyl)-paromomycindicarboxamide [Ligand L17]”, in series [4], the “tumor growth inhibitor index (TGI)” value amounted to 83.1%. Further, in series [4] (daily i.p. injections over 16 days, vs untreated control and GPM-2-treated group), the tumor growth entry is “significantly reduced tumor growth”. The “amount of released sulfate-labeled material (% CPM)” value in series [5] is 1.32%. In series [2], this compound displayed an IC50 of more than 500 µM. Moreover, in series [3], the cell viability was 39%. Further, in series [6], the U-87 cell invasion entry is “significant reduction”. Besides, the lung metastasis result in series [7] was “significant reduction in lung metastasis”. Besides, the “selectivity for HPSE over PF4” value in series [8] is “over 100 fold”.

“1,2′,2‴,3,6‴-Penta-N-sulfo-6′,5″-di-O-sulfo-2″,3′,3‴,4,4′,4‴-hexa-O-(2-naphthylmethyl)-paromomycin [Ligand L11]”: the IC50 in series [1] was determined as 0.0201 ± 0.0013 µM.

On to “1,2′,2‴,3,6‴-Penta-N-sulfo-paramomycin [Ligand L1]”, for which the IC50 in series [1] worked out at 37.2 ± 1.5 µM.
